We go through 39 compounds from the supplement of paper PMC6135742.

The structures appear in SMILES notation. Where a name gives a salt, the structure may show the parent alone. ± gives the standard deviation of the averaged measurements. In all, about 2,600 compounds were measured (“MBP+ mature oligodendrocyte number relative to DMSO vehicle control”: median about -0.34, highest 2% from about 13 on). The list shows a part of the results.
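Also: 10 µM single dose with 3-day oligodendrocyte differentiation.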

In the test the test system is jimpy (Plp1 jimpy) mouse iPSC-derived oligodendrocyte progenitor cells. Kind of test: MBP+ mature oligodendrocyte number relative to DMSO vehicle control (SDs above negative control mean); higher = more surviving jimpy oligodendrocytes (rescue). Conditions: 10 µM; 3 days.
Regarding `O=c1[nH]ccc2c(O)cccc12` [1,5-Isoquinolinediol], the “MBP+ mature oligodendrocyte number” value was -0.519.
Under `CC(C)(CO)[C@@H](O)C(=O)NCCC(=O)O` [D-Pantothenic acid] stands 1.4; under `CCN(CC)C(=O)C1(c2ccccc2)CC1CN` (centres undefined) [Milnacipran HCl], 1.22; under `Cc1cc(C(C)(C)C)cc(C)c1CC1=NCCN1` [Xylometazoline hydrochloride], -1.93.
In the case of `Cc1cc(C(C)(C)C)cc(C)c1CC1=NCCN1` [Xylometazoline HCl] it was -1.9; in that of `COc1cc(NC(=O)c2ccccn2)ccc1Cl`, 5.1.
Regarding `O=P(O)(O)C(O)(Cn1ccnc1)P(=O)(O)O` [Zoledronic acid monohydrate], the “MBP+ mature oligodendrocyte number” value is -0.637.
In the case of `O=P(O)(O)C(O)(Cn1ccnc1)P(=O)(O)O` [Zoledronic Acid] it was -0.589; in that of `O=C(c1cc(O)c(O)c([N+](=O)[O-])c1)c1ccccc1F`, 1.29.
Take `CC#CCn1c(N2CCC[C@@H](N)C2)nc2c1c(=O)n(Cc1nc(C)c3ccccc3n1)c(=O)n2C` [Linagliptin]: the “MBP+ mature oligodendrocyte number” value turned out to be 2.01.
In the case of `CCN(CC)CCOCCOC(=O)C1(c2ccccc2)CCCC1` [Carbetapentane citrate], the “MBP+ mature oligodendrocyte number” value stood at 7.93.
Under `COc1cc(OC)c(NC(=O)Nc2cc(C)on2)cc1Cl` stands 2.41.
With `CNC(=O)c1ccc(N2C(=S)N(c3ccc(C#N)c(C(F)(F)F)c3)C(=O)C2(C)C)cc1F` [Enzalutamide (MDV3100)], the “MBP+ mature oligodendrocyte number” value turned out to be 16.6.
In the case of `N[C@H]1CONC1=O` [L-Cycloserine] it was -1.1; in that of `O=c1c(O)c(-c2ccc(O)cc2)oc2cc(O)cc(O)c12` [Kaempferol], -1.12.
Under `COc1cc2nc(N3CCN(C(=O)C4COc5ccccc5O4)CC3)nc(N)c2cc1OC` (centres undefined) [Doxazosin Mesylate] stands -2.68; under `COc1cc2nc(N3CCN(C(=O)C4COc5ccccc5O4)CC3)nc(N)c2cc1OC` (centres undefined) [Doxazosin mesylate], -2.85; under `N#C/C(=C(/N)Sc1ccc(N)cc1)c1ccccc1C(F)(F)F`, -0.589.
In the case of `COc1cccc2c1C(=O)c1c(O)c3c(c(O)c1C2=O)C[C@@](O)(C(=O)CO)C[C@@H]3O[C@H]1C[C@H](N)[C@H](O[C@@H]2CCCCO2)[C@H](C)O1` [Pirarubicin], the “MBP+ mature oligodendrocyte number” value is below -6.7.
Under `COC(=O)C1=CO[C@@H](O)[C@@H]2C(CO)=CC[C@H]12` [Genipin] stands 3.27 ± 0.9; under `Cc1nc(C(=O)NCC(=O)O)c(O)c2ccc(Oc3ccccc3)cc12`, 6.04; under `CCCOc1ccccc1-c1nc2[nH]nnc2c(=O)[nH]1` [Zaprinast], below -3.85.
Under `CCCCCCNC(=O)n1cc(F)c(=O)[nH]c1=O` [Carmofur] stands -5.28 ± 2; under `COc1ccc(Cl)cc1C(=O)NCCc1ccc(S(=O)(=O)NC(=O)NC2CCCCC2)cc1` [Glyburide], 5.47.
For the compound `COc1ccc(Cl)cc1C(=O)NCCc1ccc(S(=O)(=O)NC(=O)NC2CCCCC2)cc1` [Glybenclamide], the “MBP+ mature oligodendrocyte number” value was -1.22.
Turning to `Nc1nc(=O)n([C@@H]2CS[C@H](CO)O2)cc1F` [Emtricitabine], the “MBP+ mature oligodendrocyte number” value is -0.467.
Under `CC#C[C@]1(O)CC[C@H]2[C@@H]3CCC4=CC(=O)CCC4=C3[C@@H](c3ccc(N(C)C)cc3)C[C@@]21C` [Mifepristone] stands 0.825 ± 0.37.
For `CCc1cccc(CC)c1NC(=O)N1Cc2[nH]nc(NC(=O)c3ccc(N4CCN(C)CC4)cc3)c2C1`, the “MBP+ mature oligodendrocyte number” value was -6.26.
In the case of `COC(=O)N[C@@H](C)CNc1nccc(-c2cn(C(C)C)nc2-c2cc(Cl)cc(NS(C)(=O)=O)c2F)n1` it was -6.01; in that of `CC[C@@H]1C(=O)N(C)c2cnc(Nc3ccc(C(=O)N[C@H]4CC[C@H](N5CCN(CC6CC6)CC5)CC4)cc3OC)nc2N1C(C)C` [Volasertib (BI 6727)], below -4.81; in that of `CCn1c(=O)c2c(nc(/C=C/c3ccc(OC)c(OC)c3)n2C)n(CC)c1=O` [Istradefylline], -4.18.
For the compound `CC1=NN(c2ccc(C)c(C)c2)C(=O)/C1=N\Nc1cccc(-c2cccc(C(=O)O)c2)c1O` [Eltrombopag], the “MBP+ mature oligodendrocyte number” value was found to be 1.07.
Under `NC(C(=O)O)C(O)C(=O)O` (racemic) [DL-threo-beta-hydroxyaspartic acid] stands 3.48; under `O=C(O)C1=CC(=C(c2ccc(O)c(C(=O)O)c2)c2ccc(O)c(C(=O)O)c2)C=CC1=O` [Aurintricarboxylic acid], -1.14.
In the case of `C[C@@H]1C/C=C/C=C/C=C/C=C/[C@H](O[C@@H]2O[C@H](C)[C@@H](O)[C@H](N)[C@@H]2O)C[C@@H]2O[C@](O)(C[C@@H](O)C[C@H]3O[C@@H]3/C=C/C(=O)O1)C[C@H](O)[C@H]2C(=O)O` [Natamycin] it was 0.0731; in that of `CC(C(O)c1ccc(O)cc1)N1CCC(Cc2ccccc2)CC1` (centres undefined) [Ifenprodil tartrate], 8.03.
As to `CC(C(O)c1ccc(O)cc1)N1CCC(Cc2ccccc2)CC1` (centres undefined) [Ifenprodil Tartrate], the “MBP+ mature oligodendrocyte number” value was 20.3.
For the compound `O=c1ccn([C@@H]2O[C@H](COP(=O)(O)OP(=O)(O)O)[C@@H](O)[C@H]2O)c(=O)[nH]1` [Uridine 5'-diphosphate sodium], the “MBP+ mature oligodendrocyte number” value turned out to be 0.503.
Under `CC(C)[C@H](N)C(=O)OCCOCn1cnc2c(=O)nc(N)[nH]c21` [Valaciclovir HCl] stands 0.883.
